In US20260217779A1 (Chugai, published 2026):

T1: mouse CXCR3 (mCXCR3) on Ba/F3 transfectant cells (mouse, UniProt O88410 1-367)
T1 sequence (looked up): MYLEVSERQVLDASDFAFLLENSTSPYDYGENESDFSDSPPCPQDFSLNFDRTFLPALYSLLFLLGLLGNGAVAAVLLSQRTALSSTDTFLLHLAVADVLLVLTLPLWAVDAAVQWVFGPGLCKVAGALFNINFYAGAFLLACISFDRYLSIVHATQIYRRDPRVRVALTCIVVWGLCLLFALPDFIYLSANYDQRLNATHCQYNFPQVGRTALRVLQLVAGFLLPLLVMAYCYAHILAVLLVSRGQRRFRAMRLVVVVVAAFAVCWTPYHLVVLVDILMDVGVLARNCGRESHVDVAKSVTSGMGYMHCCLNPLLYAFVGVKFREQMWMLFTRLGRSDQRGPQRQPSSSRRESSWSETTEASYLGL


Biological target: T1, mouse CXCR3 (mCXCR3) on Ba/F3 …
Experiment: cell-based or functional assay

Luminescence value at 1 nM, DPPIV - | Luminescence value at 2 nM, DPPIV - | Luminescence value at 5 nM, DPPIV - | Luminescence value at 9 nM, DPPIV - | Luminescence value at 19 nM, DPPIV - | Luminescence value at 38 nM, DPPIV - | Luminescence value at 75 nM, DPPIV - | Luminescence value at 150 nM, DPPIV - | Luminescence value at 300 nM, DPPIV - | Luminescence value at 600 nM, DPPIV - | Luminescence value at 1 nM, DPPIV + | Luminescence value at 2 nM, DPPIV + | Luminescence value at 5 nM, DPPIV + | Luminescence value at 9 nM, DPPIV + | Luminescence value at 19 nM, DPPIV + | Luminescence value at 38 nM, DPPIV + | Luminescence value at 75 nM, DPPIV + | Luminescence value at 150 nM, DPPIV + | Luminescence value at 300 nM, DPPIV + | Luminescence value at 600 nM, DPPIV + | Binder
384000 | 909000 | 2.36e+06 | 3.93e+06 | 5.87e+06 | 1.01e+07 | 1.33e+07 | 9.68e+06 | 3.83e+06 | 1.13e+06 |  |  |  |  |  |  |  |  |  |  | hCXCL10R75A (ligand) not shown
 |  |  |  |  |  |  |  |  |  | 78200 | 73800 | 74800 | 84000 | 82800 | 107000 | 410000 | 1.7e+06 | 3.72e+06 | 5.45e+06 | DPPIV-treated hCXCL10R75A (ligand) not shown
